Test results published in patent publication US20200181261A1 (Bayer, published 2020).

Biological target: T1, human CEACAM1, extracellular (mature form), R&D Systems 2244-CM (human, UniProt P13688 35-428)
T1 construct: used biotinylated in some assays; also called TPP-1437; hC1
T1 sequence: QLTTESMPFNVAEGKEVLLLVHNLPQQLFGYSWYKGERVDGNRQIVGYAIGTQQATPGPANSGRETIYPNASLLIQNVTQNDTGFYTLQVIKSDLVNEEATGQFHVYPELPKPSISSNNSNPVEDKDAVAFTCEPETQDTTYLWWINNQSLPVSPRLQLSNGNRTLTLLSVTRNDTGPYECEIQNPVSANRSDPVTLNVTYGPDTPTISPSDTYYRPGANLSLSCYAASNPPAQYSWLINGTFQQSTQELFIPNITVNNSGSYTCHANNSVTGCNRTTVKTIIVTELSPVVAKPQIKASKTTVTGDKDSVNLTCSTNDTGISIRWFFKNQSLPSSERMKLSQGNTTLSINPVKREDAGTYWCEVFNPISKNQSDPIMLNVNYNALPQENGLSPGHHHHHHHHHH
Assay: binding ELISA with recombinant proteins, CEACAM1 coated
Description: Therefore, a direct CEACAM6-CEACAM1 interaction was tested using recombinant proteins in a binding ELISA. After establishing in preliminary experiments that a moderate but specific interaction between CEACAM1 and CEACAM6 could be detected, the following protocol was used: Black 384-well Maxisorb plates (Nunc) were coated with 1 μg/ml CEACAM1 (R&D Systems, TPP-1437) in Coating Buffer (Candor) for 1 h at 37° C. or were left uncoated as a control. After one wash with PBS/0.05% Tween-20 the wells were blocked with 100% Smart Block (Candor) for 1 h at 37° C. […] The blocked plates were washed three times and the preformed antibody-CEACAM6-complexes were added. The plates were incubated for 1 h at RT. After three washes an anti-human IgG HRP (Sigma A1070) was added at 1:10.000 and the plates were incubated for 1 h at RT. After three washes the plates were developed with Amplex Red (Life Technologies) and fluorescence was read at an emission wavelength of 590 nm.

binding result: binds
B1: Human CEACAM6-Xa-Fc-His (Fc fusion)
chain: KLTIESTPFNVAEGKEVLLLAHNLPQNRIGYSWYKGERVDGNSLIVGYVIGTQQATPGPAYSGRETIYPNASLLIQNVTQNDTGFYTLQVIKSDLVNEEATGQFHVYPELPKPSISSNNSNPVEDKDAVAFTCEPEVQNTTYLWWVNGQSLPVSPRLQLSNGNMTLTLLSVKRNDAGSYECEIQNPASANRSDPVTLNVLYGPDGPTISPSKANYRPGENLNLSCHAASNPPAQYSWFINGTFQQSTQELFIPNITVNNSGSYMCQAHNSATGLNRTTVTMITVSGIEGRDMDT[human IgG1 Fc and a few adjoining residues left out]
notes: extracellular (mature form) fused to Xa-Fc-His; the entry is the whole fusion; also called hWT
